This note sets out measurements from the supplement of paper PMC11417369.

Some of the results follow.

This experiment has as its system PfSIP2 AP2 domain 1 (GST-tagged). In words: gcPBM binding intensity (ln(normalized median fluorescence intensity)); higher = stronger DNA binding. In outline: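 Binding intensity values are the highest Masliner-normalised natural-log median intensity among replicate spots of either probe orientation. The binding step lasted 1 h in 1× PBS with 1% milk, 0.2 mg/ml BSA, 0.5% salmon testes DNA and 0.03% Triton X-100, using GST-tagged P. falciparum DNA-binding domains expressed in E. coli on an Agilent 4 × 180k array of primer-extended double-stranded 36-bp intergenic genomic probes plus negative controls. Alexa488 anti-GST antibody and a 488 nm scan detected bound protein.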
Take “TTTTTTTTTTTGTTTAAACACACGAGCTTTCTTCTT [CACACA_site4085]”: the “gcPBM binding intensity (ln)” value came to 6.89.
For “AAACATATAAACATATGTACATATAAACATATATAC [XGTACX_site5026]”, the “gcPBM binding intensity (ln)” value amounted to 6.99.
The value for “AGCATATTATCATATTGTACATATTATAATATATAT [XGTACX_site3907]” was 7.27; that for “ATATGTTTTGTTTACGTGCACTGCTTTGTTTATATA [GTGCAC_site9622]” was 9.56.
The same measure for “ATTTCTCAATCTTAATGTACAAAAAAAAGGAAAAAG [XGTACX_site1210]”: 7.13; for “TAAAAATTTTAATAAACACACAATGAGATATTGAAT [CACACA_site5704]”: 6.55.
With “AGCAAATCAGATAGTAGTACATTTAAATTAGACTTT [XGTACX_site4172]”, the “gcPBM binding intensity (ln)” value turned out to be 6.62.
The same measure for “TTTTTAATTATCTTTTCCCATGGTTTCTCCGTTTTT [XGTACX_negctrl_site39]”: 6.97; for “CAAAATAAAAATAACACACACATTTATATATATACA [CACACA_site1190]”: 6.94.
In the case of “AAAGAGAAATTTAAATGTACATTTGTTCTAAGTGTA [XGTACX_site3602]”, the “gcPBM binding intensity (ln)” value is 6.92.
Regarding “AATTATGAAAAATCAAGTACAAACAAAATCATAATT [XGTACX_site5665]”, the “gcPBM binding intensity (ln)” value was found to be 7.
On to “AAAAGATATATTATATGTACTAATTATATGATAAAT [XGTACX_site4192]”, for which the “gcPBM binding intensity (ln)” value stood at 7.01.
The value for “CATACACCCATACATACACACATACATATATATATA [CACACA_site8591]” was 9.07; that for “ATATAATGTTTCACATGTACAAACAACACAAAAAAA [XGTACX_site1899]” was 7.16; that for “TATTATATTCTGCTTACACACATATATATATATATA [CACACA_site3060]” was 9.32.
The same measure for “TTAAAAAAAGAAAAAAAAAAAAAAAAAAAAAAACAT [CACACA_negctrl_site475]”: 6.86; for “TATAAAAATATTTCTACACACATTAATATTTATATA [CACACA_site6661]”: 6.96; for “GTTCTAAATATTATTGCATGTTGCACGTTTCTCTGT [TGCATGCA_site159]”: 7.65.
The same measure for “GTGATAATTGCTTGGTGTACCCACATATATATATAT [XGTACX_site1636]”: 9.03.
With “AGTATACGCAAACACACACACACAAAAAAAAAAAAA [CACACA_site426]”, the “gcPBM binding intensity (ln)” value amounted to 7.1.
For “TATTATATTTATATTTGTACTTAAAATATTATACAC [XGTACX_site2881]”, the “gcPBM binding intensity (ln)” value was 7.14.
The same measure for “AAATAAGAAAATCATAGTACATAGGAATAGAAGAAC [XGTACX_site3135]”: 7.59; for “TACGTTCTGATATATACACACCTGGTATTAATTATG [CACACA_site7113]”: 7.07.
Take “AGAAAAATTATATATACACACTTATATTTATATATA [CACACA_site5555]”: the “gcPBM binding intensity (ln)” value was found to be 6.84.
The value for “TTTTTTTTTTTAAATTGTACTTATTTTATATTATAT [XGTACX_site1077]” was 7.24.
The same measure for “AATGTCATGATACATACACACACATACACATACACA [CACACA_site8665]”: 7.16; for “ATATCTTATTTTCCTTGTACTTATTTCATAATTACA [XGTACX_site3894]”: 7.48.
The value for “TATTAAATATTGTAATGTACATATATAATATAATAT [XGTACX_site1809]” was 7.18; that for “AATTTCCCATATTACACACATACTATGATATATAAA [CACACA_site3834]” was 7.1; that for “CAATAAACCATTTTTTGTACATAAAAATAGGTATTG [XGTACX_site1892]” was 6.84.
Consider “TAAATATGTATAAATTGTACAAAATATATGAATAGT [XGTACX_site5659]”, for which the “gcPBM binding intensity (ln)” value turned out to be 7.26.
The same measure for “ATACCAAATGAATAATGTACATACGAACATACATAT [XGTACX_site1301]”: 7.07; for “GTACATTGTAAGGATGGAAAAGCTAAACATTATAAT [XGTACX_negctrl_site339]”: 6.99.
Regarding “ATATTTTTAACCAAGGACACAATTCTTGTATTGTTA [CACACA_negctrl_site1326]”, the “gcPBM binding intensity (ln)” value worked out at 6.94.
Consider “TAAGTCGTTATAAGCACACACATAAATAAAAATAAA [CACACA_site1574]”, for which the “gcPBM binding intensity (ln)” value was found to be 7.09.
The same measure for “AAGGGTTATAAAAATTGTACTTTTTTTATTTTTTTT [XGTACX_site1313]”: 6.71; for “TCAATTTTTTAATGTTGTACTTTGTAAAAAAAAATA [XGTACX_site8481]”: 7.11.
The same measure for “ATATATTTATATAGGTGTACATATTTTGCTATTCAA [XGTACX_site5199]”: 6.96; for “CAACCTCATAATATTTAACACACAAAATTATATGTA [CACACA_site8496]”: 6.93; for “CATTTAGAATAAGGCACACATAAAGAACACTTTCCA [CACACA_site130]”: 6.86.
The value for “TATTCTGGTGTAAATGCACACAGAAGAAGAAAAAAA [CACACA_site9225]” was 7.29; that for “AAGGACACCTTCAAAACACACATACAAATAAATAGA [CACACA_site5771]” was 7.16; that for “TTCTGTTGGAATATATGTACATAATAAAAAAAAATA [XGTACX_site1741]” was 7.31.
With “TTTTTTTTTTTTGTAATACACACCACTATATGTTAT [CACACA_site1844]”, the “gcPBM binding intensity (ln)” value stood at 7.02.
The same measure for “AATAAATAAAAAAAAAAAAAAAAAAAAAAAAAAAAA [XGTACX_negctrl_site343]”: 7.05; for “TGTAGTCTGGAGAAAAGTACACAGTATCTGGTAACA [XGTACX_site2010]”: 7.12.
The value for “AGTTTTATAAAAATATGTACTTATATACACATGTAT [XGTACX_site4022]” was 7.11.
The same measure for “TATGGCAAAACATTCACACATATTTATATATGTGTA [CACACA_site5588]”: 6.76; for “TTGATATGTACAGGCACACATAAATTTCACAAATAT [CACACA_site3999]”: 7.04; for “CTTTAGTTTTTAATGTGTACTGAATTTGAATAGTAG [XGTACX_site7920]”: 7.15.
On to “CGTATTATTTTATAAACACACAAGGGGGCATGTATA [CACACA_site6489]”, for which the “gcPBM binding intensity (ln)” value stood at 8.48.
The same measure for “ATATAATTAAAAACATGTACATATATATATATATAT [XGTACX_site2882]”: 9.07; for “CATAAATGTATATAAACATGCAAGGACAGACTTTTA [TGCATGCA_site900]”: 6.86; for “TACATACAGATATATACACACATATATAATATATAT [CACACA_site4376]”: 7.22.
Consider “TACATACCTATATACACATGCATATTTACATATATT [TGCATGCA_site206]”, for which the “gcPBM binding intensity (ln)” value is 7.35.
The same measure for “AAAATTAAATTATAAGCACACACATATATATATATA [CACACA_site9105]”: 9.32; for GTAAAAATACAAAAGGTGCTCAAACAATATAATACA: 8.65; for “GAATATTAAACAAACACACACACATATATTTATATA [CACACA_site7563]”: 7.05.
The value for “AATGGATTGATAAGTGGTACACACATATATATTATA [XGTACX_site6086]” was 6.98; that for “TATATAATATATATGACACACATATTTATATAAATA [CACACA_site4054]” was 7.12; that for “TTTATATTATTTTAAACATGCACAAGTATAATTTAT [TGCATGCA_site233]” was 7.84.
Consider “TAAATTTAGAAACACACACACATATATATATATATA [CACACA_site847]”, for which the “gcPBM binding intensity (ln)” value stood at 9.59.
For the sequence “TGTGGGAATAACCACACACACACACGCATATAAATA [CACACA_site7634]”, the “gcPBM binding intensity (ln)” value came to 6.95.
For the sequence “TGAACAGACGAGCACACACACACATATATATATATA [CACACA_site1019]”, the “gcPBM binding intensity (ln)” value turned out to be 9.49.
The same measure for “TTTTCATATGAACAATGTACACATCGTATAATTCTG [XGTACX_site4756]”: 6.93.
The same measure for “CTCATAAAAATAACGTTAACATAAATTTATTGTGAT [XGTACX_negctrl_site169]”: 7.04.
The value for “TATATGTCAATATCTACACACATATATATAATTATT [CACACA_site3156]” was 6.74.
“AATATAAAACATATCACACATATGTATTTATGTATA [CACACA_site5763]”: the “gcPBM binding intensity (ln)” value was 6.88.
Turning to “ATACATATTAAAGGATGTACACTTATATTTTTTAGA [XGTACX_site5406]”, the “gcPBM binding intensity (ln)” value is 6.92.
Take “AACATACACATATACACACACACATATATACATATA [CACACA_site1093]”: the “gcPBM binding intensity (ln)” value turned out to be 7.37.
In the case of “AAAAAAAAAAAAACATGTACATAAATGTAAAAAAGT [XGTACX_site8158]”, the “gcPBM binding intensity (ln)” value amounted to 7.35.
For the sequence “ACATATAAAATGTATACACACAAATATTACAGAGAT [CACACA_site4920]”, the “gcPBM binding intensity (ln)” value came out at 7.07.
The same measure for “GCTTTTGAAAATATACACATGTTAGGAATACAGGGG [TGCATGCA_negctrl_site480]”: 7.57.
Turning to TATAATAACAATTTAGTGCATATAATAATATTTTAT, the “gcPBM binding intensity (ln)” value turned out to be 8.07.
“ATTTTTTTTCTTTTTTTTTTACATTTTTTTCTTTTT [CACACA_negctrl_site1289]”: the “gcPBM binding intensity (ln)” value turned out to be 6.75.
The same measure for “AATTAAGTTAAACATTAAAAAAAACAAAAAATTAAA [CACACA_negctrl_site1333]”: 6.73; for “ATATATACATATATATGTACGTATATTTTTATTTCT [XGTACX_site6198]”: 7.48; for “TATAAACCCACCTACACACACAACGTAAATGCATTG [CACACA_site2238]”: 7.01.
Consider “ATTTAACAACTTCAAACACACAATATAGATTTATAT [CACACA_site7067]”, for which the “gcPBM binding intensity (ln)” value came to 7.07.
Regarding “AATAATTAAAATTATCTACACACCTTTATAAATATA [CACACA_site9300]”, the “gcPBM binding intensity (ln)” value turned out to be 6.77.
Regarding “AATTTAAACAAGGATCCACACACCCCAAAAAAAAAA [CACACA_site8125]”, the “gcPBM binding intensity (ln)” value worked out at 7.2.
The value for “GCCATTAATTTATACACACACATTATGATTTTTTAT [CACACA_site754]” was 7.33; that for “CCTGAACACATACATACACACACACTAATAAAAAAA [CACACA_site8023]” was 7.51; that for “ATGCATATGTTTATTGCACACACCAAAAAGAAAACA [CACACA_site403]” was 7.43.
“TACAAACTATGATGCACACATATATATATGTATACA [CACACA_site1226]”: the “gcPBM binding intensity (ln)” value was determined as 7.31.
The same measure for “AAAATGTGCCCACGCGTACACACAAAAAAAGAAAAA [CACACA_site2004]”: 7.9.
On to “TTATATTATGCTTGAATGCACTTTGAAGCACAATCT [GTGCAC_site9789]”, for which the “gcPBM binding intensity (ln)” value amounted to 9.16.
The same measure for “AATATATAATTTTATAGTACATAATAAAAGAACAGG [XGTACX_site724]”: 7.65; for “TTTAATTTTTTTTAAACACACACATTACATTCAAAA [CACACA_site7926]”: 6.93.
